In the RNAGym collection of RNA variant scans (doi:10.7554/elife.90254):
Read counts are not given, so values of variants with three or more changes are uncertain.

B1: LINE1-full (parent)
chain: UACGUAGGUGGUUUUCCCCUGAUAGUGCUAAGGGGGCCUGGAAGUUUGGACUGGGCAGAGCUCAACACAGCGUGGCAAAGUGGCUGUGGCUAGACUGCCUCUCUGGAUUCCUCGUCACUCAGCAGGGCAUCUCUGAGAGAAAUGCC

Variants of: B1
Experiment: self-cleavage, relative activity (ratio to wild type); higher = more cleavage; in vitro, sequencing; the parent is a self-cleaving ribozyme
Variant A24U G32A U47A U52C A138G has a self-cleavage of 0.47. Work on U47A U102C U115C U132C yielded a self-cleavage of 2.04. Variant A22U G34C G60A U132C A142C has a self-cleavage of 0.15. In the case of C19U A31U A42G U104A, the self-cleavage is reported as 0.73. U26G U47A A136U A140G gave a self-cleavage of 1.71. U46C A129G U130C gave a self-cleavage of 0. Variant U5C U26G U47A A121U has a self-cleavage of 1.16. U46C G49U A107G gave a self-cleavage of 1.02. In the case of C3U A6U A57G, the self-cleavage is reported as 0.84. Work on U5C U12C U39C A65U U87C U104A yielded a self-cleavage of 0. U13C A31U A59G U62C U109C U130C gave a self-cleavage of 0. In the case of U119A G127A U130G, the self-cleavage is reported as 1.82. U119C A138G U143C gave a self-cleavage of 2. In the case of U13C U45C A79G U85C, the self-cleavage is reported as 0.42. With U14A A65G C84G U104A U115A the self-cleavage was 0.1. With A2G U100C C113A A136G A141C the self-cleavage was 1.91. With A79G U100C C103A the self-cleavage was 0. For U15C G49A A64G U102C A136G, the self-cleavage was 0.59. U23C U115C G127A A140U gave a self-cleavage of 2.08. With U15C U47C U52A A142G the self-cleavage was 0. U87A U96C U108C A140G gave a self-cleavage of 0.15. Variant U91C U102C U132A has a self-cleavage of 0.89. Work on U23C C76U U132C A138G yielded a self-cleavage of 0.27. Variant A57G A117G G122A has a self-cleavage of 2.3. U15C U46G A138G gave a self-cleavage of 1.48. For A50U A69G A77U, the self-cleavage was 0.06. With U20C U29G A65U the self-cleavage was 0.32. With A43G U62A U91G A107G A140U the self-cleavage was 0. A24C G89U G114A gave a self-cleavage of 0.05. In the case of A50U G127A U130C, the self-cleavage is reported as 1.16. For C71U U102C U104G, the self-cleavage was 0.18. A59U G89A U134A gave a self-cleavage of 0.02. For U13C G32A U85A, the self-cleavage was 0.25. For U39A U52C A79G, the self-cleavage was 0.97. Work on G21A A67G A117C G139U yielded a self-cleavage of 0.18. Work on U26C U62C A142G yielded a self-cleavage of 0. In the case of A31U A50G C63U A77G U143A, the self-cleavage is reported as 0.66. In the case of U13C U73C A77U U119C, the self-cleavage is reported as 1.95. In the case of A43G G82A U85A A117G A142G, the self-cleavage is reported as 0.03. U5C A57G G88A showed a self-cleavage of 0.11. Work on G35U U39A A64G A65G yielded a self-cleavage of 0.17. For G34A U81C A107G U132C, the self-cleavage was 0.84. For A50G A57G U81C, the self-cleavage was 1.31. With A42G A50G A78G A140U the self-cleavage was 0.97. Work on U13C U96A U100C yielded a self-cleavage of 0.11. In the case of A42G U73G A94C, the self-cleavage is reported as 0. A22G G72A A129U gave a self-cleavage of 1.1. A2G U14A U20C U23A showed a self-cleavage of 0.96. Variant A24G A50U G82A A138G A140G has a self-cleavage of 2.02. A2G U12G U62A gave a self-cleavage of 0.19. For G41A A43G A67G, the self-cleavage was 0.32. Variant U13C A57U A67G U104C has a self-cleavage of 0. C3U G33A U52A showed a self-cleavage of 0.68. U14C U39C U85C A140U showed a self-cleavage of 0. For U1C U15A U73C A138G A141G, the self-cleavage was 0.51. U12A U14C C19G G48A A65G A136G showed a self-cleavage of 0.32. Variant A42U U62A A129G has a self-cleavage of 0.02. U12C U14C U81A showed a self-cleavage of 2.84. Work on G49A U87C A140G yielded a self-cleavage of 0. Work on U46A A64C A142C yielded a self-cleavage of 0.35. With C68U A107U U108C the self-cleavage was 0.09. U13C A77U U112C gave a self-cleavage of 1.26. Work on U15C C37A G105U A138G yielded a self-cleavage of 1.47. For G21A G25A U52A A59U C131U, the self-cleavage was 0.43. Work on U39A A67G A69U yielded a self-cleavage of 0.09. G33C U73C A129U gave a self-cleavage of 0.33. Variant U52A G82A A124G has a self-cleavage of 1.98. U1C A22U U45A showed a self-cleavage of 0.48. For U20A G36C A79G, the self-cleavage was 0.72. Variant A65G G82A U112A has a self-cleavage of 0.05. Variant G4A U46C A140G has a self-cleavage of 0.82. In the case of U109A U115C G122U, the self-cleavage is reported as 1.35. Variant U13C U45G U134C has a self-cleavage of 0.63. U14C U26C A138G U143A showed a self-cleavage of 1.53. For U1C G49A A94G, the self-cleavage was 0.11. In the case of U1C A2G A57G A77G, the self-cleavage is reported as 0. G25C C71U C110A A129G gave a self-cleavage of 0.84. A67U A78G U108C gave a self-cleavage of 0.08. Variant A22G U104A A140G has a self-cleavage of 0.56. Variant C71U G93A A107G U108C has a self-cleavage of 0.03. In the case of U5C A69C G74U, the self-cleavage is reported as 0.04. A31U C37A U39C U45C G125A showed a self-cleavage of 0. Work on U29C G41U A69G yielded a self-cleavage of 0.14. G21U U85G G125A gave a self-cleavage of 0.13.
